This passage reports Kd results from patent publication US20200377587A1 (NANTBIO, published 2020).

Test [1] deals with T1, IL-8 (UniProt P10145 28-99, limits assumed).
T1 construct: also called Interleukin-8; immobilized IL-8
T1 sequence (looked up): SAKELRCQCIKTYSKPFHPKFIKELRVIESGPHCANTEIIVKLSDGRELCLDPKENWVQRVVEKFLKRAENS
The experiment in a line: SPR, immobilized IL-8, IgG, 37 C. The method, then: (§1) Here, scFv and corresponding humanized IgG₁ were prepared using the sequences as indicated, and KD was determined using SPR with immobilized IL-8 as […] on the chip surface. All values are expressed as nanoM values at temperatures as indicated.
Background: In SPR one partner is held on a chip, and binding of the other changes the refractive index at the surface.

Test [2] concerns the target T1, IL-8. In words: SPR, immobilized IL-8, IgG1, 25 C. The method, then: as §1

B1: IgG1 49-10 (antibody, V domains shown)
VH: [skipping about 100 residues]DLGWLSRLFAGFDVWGQGTLVTVSS
VL: DIQMTQSPSSLSASVGDRVTITCQASQDISNYLNWYQQKPGKAPKLLIYDASNLETGVPSRFSGSGSGTDFTFTISSLQPEDIATYYCQQDYGYPLTFGQGTKVEIK
notes: also called 49-10 IgG1; Clone 49-10
The Kd is the concentration at which binding is half-saturated. As for B1, the Kd with IL-8 [1] turned out to be 3.45 nM; with IL-8 [2], 2.21 nM.
